Data on 47 molecules can be found in PubChem BioAssay AID1963576 (National Center for Advancing Translational Sciences (NCATS), 2024).

In all, about 46,000 compounds went through this assay and about 60 (0.1%) were called active. Roughly 3% stayed inconclusive and do not appear here. The call rests on the fitted dose curve; in most records, active means well fitted inhibition curve with a large enough effect; inconclusive means small, poorly fitted or top-dose-only effect; inactive means no such curve, though single readings can be large or run the other way. This is one part of the list.

The nature of this assay: Primary qHTS assay for Inhibitors of ovarian cancer metastasis using an organotypic tumor microenvironment (TME) model. Further: nearly all actives have a fitted effect of over 65% in size.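 On activity change, negative = inhibition: plate controls were DMSO wells for no effect and tomatine positive control wells for full effect.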 The following applies: SKOV3ip1-GFP adhesion/invasion on 3D omental model, fluorescence; series mostly up to 45.8 µM; activity change, negative = inhibition: at the top concentration. An outline of the steps: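 Adhesion/invasion was scored as fixed GFP-labeled SKOV3ip1 cell counts (488/509 nm), normalized to DMSO and tomatine controls. Cancer cells in serum-free medium, with four compound doses (0.36-46 umol/L), sat 2 hr at RT then 16 hr at 37 C on a 48 hr fibroblast/mesothelial/ECM culture.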
In general terms: qHTS replaces the single test concentration by a dilution series.
As for `COc1c(Cl)cc(C(=O)N(Cc2ccccc2F)C2CCS(=O)(=O)C2)cc1Cl` (configuration not stated), the call was inactive.

`CCC(Sc1nc(-c2ccc(F)cc2)nc2c1Cc1c(CO)cnc(C)c1O2)C(=O)Nc1ccc(F)cc1` (configuration not stated): the “activity change, negative = inhibition” value was inactive: -4.08%.

Consider `COc1ccc(CCC(=O)NCc2ccc3c(c2)CCN3C(=O)c2ccccc2)cc1`, for which the “activity change, negative = inhibition” value is inactive: -40.8%.

As for `COc1ccc(C(CNC(=O)c2ccc(F)cc2)N2CCCC2)cc1` (configuration not stated), the “activity change, negative = inhibition” value is inactive: -3.34%.

As for `Cn1c(=O)c2c(nc(SCC(=O)Nc3ccc(F)cc3)n2Cc2ccccc2F)n(C)c1=O`, the “activity change, negative = inhibition” value is inactive: -41.6%.

With `CCC(=O)N1c2ccc(S(=O)(=O)CCC(=O)N3CCN(c4cc(C)ccc4C)CC3)cc2CC1C` (configuration not stated), the result was inactive.

As for `CCCSc1ncc(Cl)c(C(=O)Nc2c(C(=O)c3ccc(C)cc3)oc3ccccc23)n1`, the “activity change, negative = inhibition” value is inactive: 3.47%.

Take `CCOc1ccc2nc(NC(=O)c3nc(SCc4ccccc4C)ncc3Cl)sc2c1`: the “activity change, negative = inhibition” value was inactive: 74.6%.

On to `Cc1cc(C)cc(NC(=O)N2CCC(CN3CCCCCC3)CC2)c1`, for which the “activity change, negative = inhibition” value is inactive: -8.95%.

For the molecule `O=C(NC1CC(=O)N(c2ccccc2)C1)C(c1ccccc1)c1ccccc1` (configuration not stated), the molecule was classed as inactive.

Turning to `COC(=O)c1c(NC(=O)/C(C#N)=C/c2ccc(OC)cc2)sc2c1CCC2`, the “activity change, negative = inhibition” value was inactive: 16.4%.

Consider `O=C(CSc1nc2nccnc2c(=O)n1CCc1c[nH]c2ccccc12)Nc1ccccc1`, for which the “activity change, negative = inhibition” value was inactive: -5.48%.

Take `CCc1ccc(C(=O)c2cn(CC(=O)Nc3cc(OC)ccc3OC)c3nc(C)ccc3c2=O)cc1`: the “activity change, negative = inhibition” value was inactive: -8.64%.

On to `O=C(Nc1ccccc1C(F)(F)F)C1CCN(S(=O)(=O)Cc2ccccc2)CC1`, for which the molecule was classed as inactive.

With `COc1ccc(S(=O)(=O)N2CCC(N3CCN(Cc4ccc(F)cc4)C(=O)C3=O)CC2)cc1`, the “activity change, negative = inhibition” value is inactive: -0.0113%.

For the molecule `Cc1ccc(C(=O)N2CCCCC2)cc1NC(=O)c1nsc2ccccc12`, the “activity change, negative = inhibition” value was inactive: -6.06%.

Regarding `Cc1c(CCNC(=O)c2ccc(Br)o2)sc2nc(-c3ccc(Cl)cc3)nn12`, the “activity change, negative = inhibition” value was inactive: -3.11%.

Turning to `Cc1oc2cc3oc(=O)c(CC(=O)NCc4ccccc4)c(C)c3cc2c1C`, the “activity change, negative = inhibition” value is inactive: -19.2%.

For the molecule `Cc1ccc(C)c(NC(=O)c2ccc3c(c2)CCCN3S(C)(=O)=O)c1`, the “activity change, negative = inhibition” value was inactive: -3.83%.

`COc1cccc(NC(=O)c2oc3ccccc3c2NC(=O)c2ccc(F)c(F)c2)c1`: the “activity change, negative = inhibition” value was inactive: 7.22%.

As for `Cc1ccc(-n2c(=O)c3sc4ccccc4c3n(C)c2=O)cc1F`, the outcome was inactive.

Take `CCCCNC(=O)c1nn(-c2ccc(C)cc2)c(=O)n(C)c1=O`: the “activity change, negative = inhibition” value was inactive: 3.89%.

`COc1ccc(CCNC(=O)c2cccc(-n3cnc4cccnc43)c2C)cc1OC`: the “activity change, negative = inhibition” value was inactive: 1.59%.

`CC(CNC(=O)CN1C(=O)COc2ccc(S(=O)(=O)N3CCCCCC3)cc21)c1ccccc1` (configuration not stated): the call was inactive.

On to `Cc1ccccc1NC(=O)c1c(NC(=O)c2ccco2)sc2c1CCC(C(C)(C)C)C2` (configuration not stated), for which the “activity change, negative = inhibition” value is inactive: 1.63%.

With `CCC(=O)N1CCc2cc(Br)cc(S(=O)(=O)N3CCCC(C(=O)Nc4cccc(C)c4C)C3)c21` (configuration not stated), the “activity change, negative = inhibition” value was inactive: 27.4%.

`COc1ccc(N2C(=O)CS(=O)(=O)C23C(=O)N(Cc2ccc(F)cc2)c2ccc(C)cc23)cc1` (configuration not stated): the “activity change, negative = inhibition” value was inactive: 30.7%.

With `COc1ccccc1CNC(=O)CSc1nc2nc(C)c(Cc3ccccc3Cl)c(C)n2n1`, the “activity change, negative = inhibition” value was inactive: 0.792%.

Turning to `Cc1ccc(Cl)cc1NC(=O)C1CCCN(S(=O)(=O)c2cccc3cccnc23)C1` (configuration not stated), the “activity change, negative = inhibition” value is inactive: 1.96%.

For the molecule `CC(Oc1ccccc1)C(=O)Nc1ccc(OCc2cc(=O)n3ccsc3n2)cc1` (configuration not stated), the “activity change, negative = inhibition” value was inactive: 4%.

Regarding `CCOC(=O)c1c(S(=O)(=O)N2CCCC(C(=O)Nc3cccc(C#N)c3)C2)c(C)n(C)c1C` (configuration not stated), the “activity change, negative = inhibition” value was inactive: 2.35%.

With `Cc1ccccc1CNC(=O)c1cccc(NC(=O)N2CCSc3ncccc32)c1`, the call was inactive.

Consider `Cc1ccc(S(=O)(=O)c2cn(CC(=O)Nc3ccccc3C)c3cc4c(cc3c2=O)OCO4)cc1`, for which the “activity change, negative = inhibition” value is inactive: 17.3%.

`CCOc1ccc(CC(=O)Nc2c(C(=O)Nc3ccc(OC)cc3OC)oc3ccccc23)cc1`: the result was inactive.

Consider `Cn1c(=O)c2c(SCC(=O)NCc3ccco3)nc(-c3cccc(F)c3)nc2n(C)c1=O`, for which the “activity change, negative = inhibition” value was inactive: 3.24%.

As to `CCOC(=O)c1c(S(=O)(=O)NCC(=O)Nc2ccc(C)c(N(C)C)c2)c(C)n(C)c1C`, the “activity change, negative = inhibition” value was inactive: 2.74%.

With `NS(=O)(=O)c1ccc(CCNC(=O)c2ccc3nc(CCc4ccccc4)oc3c2)cc1`, the “activity change, negative = inhibition” value was inactive: -9.93%.

Take `Cc1cc2c(cc1S(=O)(=O)N(C)CC(=O)Nc1ccc(C#N)cc1)OCC(=O)N2`: the “activity change, negative = inhibition” value is inactive: 2.83%.

`Cc1nc(NC(=O)N2CCC[C@@H]2C(N)=O)sc1-c1csc(C(C)(C)C)n1`: the “activity change, negative = inhibition” value is inactive: 3.45%.

Regarding `COc1ccc(-c2nc3cc(C)ccn3c2NC(=O)c2ccc(F)cc2)cc1`, the “activity change, negative = inhibition” value is inactive: 2.46%.

`CCOc1ccc(CNC(=O)c2cnc3sc(N4CCOCC4)nn3c2=O)cc1OC`: the “activity change, negative = inhibition” value is inactive: 2.99%.

Turning to `CCOc1ccc(CCNC(=O)c2nc(-c3cccc(F)c3)n3c2CCCCC3)cc1OCC`, the outcome was inactive.

As for `CCOC(=O)N1CCN(Cc2nc3cc([N+](=O)[O-])ccc3n2C(C)C)CC1`, the “activity change, negative = inhibition” value is inactive: -11.4%.

Turning to `Cc1cccc(N2CCN(C(=O)CN3C(=O)COc4ccc(S(=O)(=O)N5CCC(C)CC5)cc43)CC2C)c1` (configuration not stated), the “activity change, negative = inhibition” value is inactive: 17%.

With `CC(C)c1nc2ccc(C(=O)NCCCN3CCN(c4cccc(Cl)c4)CC3)cc2o1`, the result was inactive.

Consider `Cc1ccc2scc(N3CCC(C)CC3)c(=O)c2c1`, for which the “activity change, negative = inhibition” value was inactive: -22%.

For `Cc1cccc(N2CCN(C(=O)C3CCCN(S(=O)(=O)c4ccc(Br)s4)C3)CC2)c1C` (configuration not stated), the molecule was called inactive.
